Experimental data taken from the supplement of paper PMC6089552.
Among all 3,200 compounds or so, about 300 (9.4%) showed activity. This is a selection; strong and weak results do not stand in their true shares.

Test system: A673/TR/shEF
Assay: cell viability (LOESS-normalised, relative to median of negative controls) (log2 ratio); higher = more viable cells (less compound effect), active = hit call of the paper (over 3 MAD below the median)
Conditions: treatment time: 72 h
Procedure, shortened: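 A673/TR/shEF Ewing sarcoma cells were plated at 1,500 per well in 384-well plates and cultured with or without doxycycline, added 24 h before compounds, to induce EWS-FLI1 shRNA knockdown. Library compounds at two or more concentrations, alongside DMSO controls, were applied for three days. Cell viability was measured by CellTiter-Glo luminescence on an Envision reader. Readings were LOESS-corrected per plate, divided by the median of negative controls and log2-transformed, and hits were wells lying at least three median absolute deviations from the median of all screened wells.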

[1] = 0.25 µM, library screen: screen1, EWS-FLI1 expression: high (no doxycycline)
[2] = 0.25 µM, library screen: screen1, EWS-FLI1 expression: low (doxycycline-induced shRNA knockdown)
[3] = 0.25 µM, library screen: screen2, EWS-FLI1 expression: high (no doxycycline)
[4] = 0.25 µM, library screen: screen2, EWS-FLI1 expression: low (doxycycline-induced shRNA knockdown)
[5] = 2.5 µM, library screen: screen1, EWS-FLI1 expression: high (no doxycycline)
[6] = 2.5 µM, library screen: screen1, EWS-FLI1 expression: low (doxycycline-induced shRNA knockdown)
[7] = 2.5 µM, library screen: screen2, EWS-FLI1 expression: high (no doxycycline)
[8] = 2.5 µM, library screen: screen2, EWS-FLI1 expression: low (doxycycline-induced shRNA knockdown)
[9] = 25 µM, library screen: screen2, EWS-FLI1 expression: high (no doxycycline)
[10] = 25 µM, library screen: screen2, EWS-FLI1 expression: low (doxycycline-induced shRNA knockdown)

Measured: cell viability (log2)

c1ccc2nc(N3CCNCC3)ccc2c1
inactive: [1] 0.0719 | [2] 0.0592 | [3] 0.196 | [4] 0.0365 | [5] 0.0383 | [6] 0.12 | [7] 0.14 | [8] 0.00635

C[N+](C)(C)CCCCCCCCCC[N+](C)(C)C
inactive: [3] 0.191 | [4] 0.0505 | [7] 0.0497 | [8] 0.0976

C=C(C)c1cc2cc(C(C)=O)c(O)cc2o1
inactive: [1] 0.113 | [2] 0.098 | [5] 0.0228 | [6] 0.00912

Cc1c(C(=O)c2cccc3ccccc23)c2cccc3c2n1[C@H](CN1CCOCC1)CO3
inactive: [3] 0.156 | [4] 0.114 | [7] 0.0797 | [8] 0.063

COC(=O)[C@]1(C)CC[C@]2(C)CC[C@]3(C)C4=CCc5c(cc(O)c(O)c5C)[C@]4(C)CC[C@@]3(C)[C@@H]2C1
active: [5] -1.44 | [6] -0.357
inactive: [1] 0.0264 | [2] 0.158

CC(CCc1ccccc1)NC(C)C(O)c1ccc(O)cc1 (centres undefined)
inactive: [1] -0.071 | [2] 0.0658 | [3] 0.181 | [4] 0.0652 | [5] 0.0745 | [6] 0.0738 | [7] 0.119 | [8] -0.0269

CC(=O)OC1CN2CCC1CC2 (centres undefined)
inactive: [1] 0.0435 | [2] 0.00094 | [5] 0.0444 | [6] 0.0838

O=C1C[C@@H]2OCC=C3CN4CC[C@]56c7ccccc7N1[C@H]5[C@H]2[C@H]3C[C@H]46
inactive: [1] 0.102 | [2] 0.0744 | [5] 0.121 | [6] 0.13

CC[C@@]1(O)C(=O)OCc2c1cc1n(c2=O)Cc2cc3ccccc3nc2-1
active: 0.103 µM, library screen: screen3, EWS-FLI1 expression: high (no doxycycline) -1.01 | [1] -2.18 | [2] -0.586 | [3] -2.99 | [4] -0.42 | 0.308 µM, library screen: screen3, EWS-FLI1 expression: high (no doxycycline) -2.37 | 0.308 µM, library screen: screen3, EWS-FLI1 expression: low (doxycycline-induced shRNA knockdown) -0.543 | 0.926 µM, library screen: screen3, EWS-FLI1 expression: high (no doxycycline) -3.61 | 0.926 µM, library screen: screen3, EWS-FLI1 expression: low (doxycycline-induced shRNA knockdown) -0.88 | [5] -1.57 | [6] -0.388 | [7] -3.53 | [8] -0.945 | 2.8 µM, library screen: screen3, EWS-FLI1 expression: high (no doxycycline) -4.24 | 2.8 µM, library screen: screen3, EWS-FLI1 expression: low (doxycycline-induced shRNA knockdown) -1.16 | 8.3 µM, library screen: screen3, EWS-FLI1 expression: high (no doxycycline) -4.26 | 8.3 µM, library screen: screen3, EWS-FLI1 expression: low (doxycycline-induced shRNA knockdown) -1.3 | [9] -4.09 | [10] -1.25 | 25 µM, library screen: screen3, EWS-FLI1 expression: high (no doxycycline) -4.26 | 25 µM, library screen: screen3, EWS-FLI1 expression: low (doxycycline-induced shRNA knockdown) -2.33

C[C@]12Cc3cn4c(nc3C=C1CCC1C2CC[C@@]2(C)[C@H]1CC[C@@]2(O)C#N)nc1ccccc14 (some centres undefined)
inactive: [3] 0.119 | [4] 0.112 | [7] 0.295 | [8] 0.0843

NCCc1cc(O)c(O)cc1O
inactive: [1] 0.0637 | [2] 0.155 | [5] 0.144 | [6] 0.129

C#CCOS(=O)OC1CCCCC1Oc1ccc(C(C)(C)C)cc1 (centres undefined)
inactive: [1] -0.0142 | [2] 0.0922 | [5] 0.0133 | [6] 0.0117

CC(C)=CCC[C@]1(C)C=Cc2c(O)c3c(c(CC=C(C)C)c2O1)O[C@]12C(=C[C@@H]4C[C@H]1C(C)(C)O[C@@]2(C/C=C(/C)C(=O)O)C4=O)C3=O
active: [5] -1.16
inactive: [1] -0.0514 | [2] 0.129 | [6] -0.0142

Clc1cccc(N2CCNCC2)c1
inactive: [3] 0.229 | [4] 0.082 | [7] 0.142 | [8] 0.0632

CN1CCCCC1c1ccc(-c2cccnc2)nc1 (centres undefined)
inactive: [1] 0.0627 | [2] 0.00582 | [5] 0.21 | [6] 0.148

C[C@H]1CCC/C=C/[C@@H]2C[C@H](O)C[C@H]2[C@H](O)/C=C/C(=O)O1
active: [3] -0.127 | [4] -0.561 | [7] -3.76 | [8] -3.56

CC(N)[C@H](O)c1ccc(O)c(O)c1 (some centres undefined)
inactive: [3] 0.189 | [4] 0.0295 | [7] 0.0292 | [8] 0.129

Cc1ncc(CNC(=O)N(CCCl)N=O)c(N)n1
inactive: [1] 0.142 | [2] 0.0123 | [3] 0.147 | [4] 0.105 | [5] 0.103 | [6] -0.0366 | [7] 0.145 | [8] 0.0381

COC(=O)[C@]1(C)CC[C@]2(C)CC[C@]3(C)C4=CC=C5C(=CC(=O)C(O)=C5C)[C@]4(C)CC[C@@]3(C)[C@@H]2C1
inactive: [1] -0.0347 | [2] 0.133
active: [5] -2.91 | [6] -3.05

COc1ccc(CN2CCN(Cc3cccc(F)c3)CC2)cc1
inactive: [1] 0.0679 | [2] 0.104 | [5] 0.124 | [6] 0.0696

COc1ccc2[nH]cc(CCN)c2c1
inactive: [1] 0.0364 | [2] 0.00397 | [3] 0.14 | [4] 0.163 | [5] 0.0538 | [6] 0.0996 | [7] 0.179 | [8] 0.0743

CCCCCCCCCc1ccc(O)cc1
inactive: [1] 0.112 | [2] 0.0261 | [5] 0.0682 | [6] -2.86

C[C@@H]([C@H](O)c1ccccc1)N(C)C
inactive: [1] 0.0401 | [2] 0.0644 | [5] -0.0124 | [6] 0.0641

c1ccc2c(c1)cc1ccc3cccc4ccc2c1c34
inactive: [1] 0.0949 | [2] 0.14 | [5] 0.11 | [6] 0.179

Oc1ccc2c3c1O[C@H]1c4[nH]c5c(c4C[C@@]4(O)[C@@H](C2)N(CC2CC2)CC[C@]314)C[C@@]1(O)[C@H]2Cc3ccc(O)c4c3[C@@]1(CCN2CC1CC1)[C@H]5O4
inactive: [3] 0.0981 | [4] 0.136 | [7] 0.129 | [8] 0.0705

CC(C)N1C(=O)c2ccccc2NS1(=O)=O
inactive: [1] 0.113 | [2] 0.086 | [5] 0.0391 | [6] 0.0775

CCCN1C[C@H](CSC)C[C@@H]2c3cccc4[nH]cc(c34)C[C@H]21
inactive: [1] 0.0106 | [2] 0.0697 | [3] 0.243 | [4] 0.105 | [5] 0.0948 | [6] 0.162 | [7] 0.237 | [8] 0.0808

C[C@@H]1CC[C@H]2[C@@H](C)C(=O)O[C@@H]3OC4(C)CC[C@@H]1[C@]32OO4
inactive: [1] 0.0266 | [2] 0.0821 | [5] 0.0419 | [6] -0.14

CCCCc1ccc(C(=O)O)nc1
inactive: [3] 0.23 | [4] 0.102 | [7] 0.0889 | [8] 0.0776

COc1cc(OC)c2c(c1)OC(c1ccc(OC)c(OC)c1)C(O)C2 (centres undefined)
inactive: [1] 0.123 | [2] 0.00653 | [5] 0.0915 | [6] 0.0594

CCN(CC)C(=O)N[C@@H]1C[C@@H]2c3cccc4[nH]cc(c34)C[C@H]2N(C)C1
inactive: [3] 0.108 | [4] 0.0251 | [7] 0.215 | [8] -0.0279

Oc1cccc2cccnc12
inactive: [1] 0.142 | [2] 0.121 | [5] 0.105 | [6] 0.189

N#C/C(=C\c1ccc(O)cc1)C(=O)O
inactive: [1] 0.0465 | [2] 0.0904 | [5] 0.146 | [6] 0.0788

CC1=C(O)C(=O)C=C2C1=CC=C1[C@@]2(C)CC[C@@]2(C)[C@@H]3C[C@](C)(C(=O)O)CC[C@]3(C)CC[C@]12C
active: [5] -1.03 | [7] -4.23 | [8] -0.301 | [9] -4.23 | [10] -3.9

C[N+](C)(C)CC#CCOC(=O)Nc1cccc(Cl)c1
inactive: [3] 0.167 | [4] 0.106 | [7] 0.105 | [8] 0.151

CN1C[C@@H](NS(=O)(=O)N(C)C)C[C@@H]2c3cccc4c3c(cn4C)C[C@H]21
inactive: [3] 0.207 | [4] 0.0745 | [7] 0.103 | [8] 0.092

NC(CF)(Cc1cnc[nH]1)C(=O)O (centres undefined)
inactive: [3] 0.186 | [4] 0.069 | [7] 0.162 | [8] 0.1

O=C(O)CCCc1ccc(N(CCCl)CCCl)cc1
active: [9] -0.0762

NCC(O)c1cc(O)c(O)cc1F (centres undefined)
inactive: [3] 0.233 | [4] 0.183 | [7] 0.0966 | [8] 0.0732

CCS(=O)(=O)Nc1cccc(C(=C2CCCCC2)c2cnc[nH]2)c1
inactive: [3] -0.0183 | [4] -0.0237 | [7] 0.0641 | [8] 0.0508

Cc1[nH]c2ccc(O)cc2c1CCN
inactive: [3] 0.199 | [4] 0.0163 | [7] 0.097 | [8] 0.0824

C=CCN1CCc2cccc3c2[C@H]1Cc1ccc(O)c(O)c1-3
inactive: [3] 0.199 | [4] 0.00481 | [7] 0.133 | [8] 0.0436

COc1nc(NC(C)C)nc(NC(C)C)n1
inactive: [1] -0.00161 | [2] 0.0381 | [5] 0.104 | [6] 0.186

COc1ccc(C(=O)N2CCCC2=O)cc1
inactive: [1] 0.125 | [2] -0.00785 | [3] 0.274 | [4] 0.128 | [5] 0.148 | [6] 0.00726 | [7] 0.115 | [8] 0.0948

CC1(C)C2CC(=O)[C@]3(C)C(CC[C@@]4(C)[C@H](c5ccoc5)OC(=O)[C@H]5O[C@]543)[C@@]2(C)C=C[C@@H]1O (some centres undefined)
inactive: [1] 0.0868 | [2] 0.0799 | [5] 0.177 | [6] 0.105
